# The other results are listed elsewhere or left out.
# B1: DBA (Dolichos biflorus) (protein)
# chain: ANIQSFSFKNFNSPSFILQGDATVSSGKLQLTKVKENGFPLRFPSGRAFYSSPIQIYDKFTGAVASWATSFTVKISAPSKASFADGIAFALVPVGSEPRRNGGYLGVFDSDVYNNSAQTVAVEFDTLSNSGWDPSMKHIGIDVNSIKSIATVSWDLANGENAEILITYNAATSLLVVSLVHPSRRTSYILSERVDITNELPEYVGVGFSATTGLSEGYIETHDVLSWSFASRLPDDSTAEPLDLARYLVRNVL
# Columns and labels:
# Experiment in all cases: glycan array binding signal (z-score within array); higher = stronger binding
# Settings in all cases: glycan notation: IUPAC condensed, linker removed
# [1] = biological target: GalNAc3S(b1-4)[Fuc(a1-3)]GlcNAc
# Outline: (§1)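 From the Consortium for Functional Glycomics database, 3228 arrays were curated, keeping only those whose protein sequence was available. Binding is given as a within-array Z-score averaged across arrays sharing a protein sequence and across linkers. Negative Z-scores can be read as non-binding.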
# GalNAc4S6S(b1-4)GlcNAc = biological target: GalNAc4S6S(b1-4)GlcNAc
# Outline: as §1
# GalNAc6S(b1-4)GlcNAc = biological target: GalNAc6S(b1-4)GlcNAc
# Outline: as §1
# Glc(a1-4)Glc = biological target: Glc(a1-4)Glc
# Outline: as §1
# [2] = biological target: Glc(a1-4)Glc(a1-4)Glc(a1-4)Glc
# Outline: as §1
# Glc(a1-6)Glc(a1-6)Glc = biological target: Glc(a1-6)Glc(a1-6)Glc
# Outline: as §1
# [3] = biological target: Glc(a1-6)Glc(a1-6)Glc(a1-6)Glc
# Outline: as §1
# Glc(b1-4)Glc = biological target: Glc(b1-4)Glc
# Outline: as §1
# Glc(b1-6)Glc = biological target: Glc(b1-6)Glc
# Outline: as §1
# GlcA(b1-3)Gal = biological target: GlcA(b1-3)Gal
# Outline: as §1
# GlcA(b1-3)GlcNAc = biological target: GlcA(b1-3)GlcNAc
# Outline: as §1
# GlcA(b1-6)Gal = biological target: GlcA(b1-6)Gal
# Outline: as §1
# [4] = biological target: GlcA3S(b1-3)Gal(b1-4)GlcNAc(b1-2)Man
# Outline: as §1
# [5] = biological target: GlcA3S(b1-3)Gal(b1-4)GlcNAc(b1-3)Gal(b1-4)Glc
# Outline: as §1
# [6] = biological target: GlcNAc(a1-3)Gal(b1-4)GlcNAc
# Outline: as §1
# [7] = biological target: GlcNAc(a1-4)Gal(b1-3)GlcNAc
# Outline: as §1
# [8] = biological target: GlcNAc(a1-4)Gal(b1-4)GalNAc
# Outline: as §1
# [9] = biological target: GlcNAc(a1-4)Gal(b1-4)GlcNAc
# Outline: as §1
# [10] = biological target: GlcNAc(a1-4)Gal(b1-4)GlcNAc(b1-3)Gal(b1-4)Glc
# Outline: as §1
# [11] = biological target: GlcNAc(a1-4)Gal(b1-4)GlcNAc(b1-3)Gal(b1-4)GlcNAc
# Outline: as §1
# [12] = biological target: GlcNAc(a1-4)Gal(b1-4)GlcNAc(b1-3)Gal(b1-4)GlcNAc(b1-3)Gal(b1-4)GlcNAc
# Outline: as §1
# [13] = biological target: GlcNAc(a1-4)Gal(b1-4)GlcNAc(b1-3)Gal(b1-4)[Fuc(a1-3)]GlcNAc(b1-3)Gal(b1-4)[Fuc(a1-3)]GlcNAc
# Outline: as §1
# [14] = biological target: GlcNAc(a1-6)Gal(b1-4)GlcNAc
# Outline: as §1
# [15] = biological target: GlcNAc(b1-2)Gal(b1-3)GalNAc
# Outline: as §1
# [16] = biological target: GlcNAc(b1-2)Man(a1-3)[GlcNAc(b1-2)Man(a1-6)]Man(b1-4)GlcNAc(b1-4)GlcNAc
# Outline: as §1
# [17] = biological target: GlcNAc(b1-2)Man(a1-3)[GlcNAc(b1-2)Man(a1-6)]Man(b1-4)GlcNAc(b1-4)[Fuc(a1-6)]GlcNAc
# Outline: as §1
# [18] = biological target: GlcNAc(b1-2)Man(a1-3)[GlcNAc(b1-4)][GlcNAc(b1-2)Man(a1-6)]Man(b1-4)GlcNAc(b1-4)GlcNAc
# Outline: as §1
# [19] = biological target: GlcNAc(b1-2)Man(a1-3)[GlcNAc(b1-4)][GlcNAc(b1-2)Man(a1-6)]Man(b1-4)GlcNAc(b1-4)[Fuc(a1-6)]GlcNAc
# Outline: as §1
# [20] = biological target: GlcNAc(b1-2)[GlcNAc(b1-4)]Man(a1-3)[GlcNAc(b1-2)Man(a1-6)]Man(b1-4)GlcNAc(b1-4)GlcNAc
# Outline: as §1
# [21] = biological target: GlcNAc(b1-2)[GlcNAc(b1-4)]Man(a1-3)[GlcNAc(b1-4)][GlcNAc(b1-2)Man(a1-6)]Man(b1-4)GlcNAc(b1-4)GlcNAc
# Outline: as §1
# [22] = biological target: GlcNAc(b1-2)[GlcNAc(b1-4)]Man(a1-3)[GlcNAc(b1-4)][GlcNAc(b1-2)[GlcNAc(b1-6)]Man(a1-6)]Man(b1-4)GlcNAc(b1-4)GlcNAc
# Outline: as §1
# [23] = biological target: GlcNAc(b1-2)[GlcNAc(b1-4)]Man(a1-3)[GlcNAc(b1-4)][GlcNAc(b1-2)[GlcNAc(b1-6)]Man(a1-6)]Man(b1-4)GlcNAc(b1-4)[Fuc(a1-6)]GlcNAc
# Outline: as §1
# [24] = biological target: GlcNAc(b1-2)[GlcNAc(b1-6)]Man(a1-6)[GlcNAc(b1-2)Man(a1-3)]Man(b1-4)GlcNAc(b1-4)GlcNAc
# Outline: as §1
# [25] = biological target: GlcNAc(b1-2)[GlcNAc(b1-6)]Man(a1-6)[GlcNAc(b1-2)Man(a1-3)]Man(b1-4)GlcNAc(b1-4)[Fuc(a1-6)]GlcNAc
# Outline: as §1
# [26] = biological target: GlcNAc(b1-2)[GlcNAc(b1-6)]Man(a1-6)[GlcNAc(b1-4)][GlcNAc(b1-2)Man(a1-3)]Man(b1-4)GlcNAc(b1-4)GlcNAc
# Outline: as §1
# GlcNAc(b1-3)Fuc = biological target: GlcNAc(b1-3)Fuc
# Outline: as §1
# GlcNAc(b1-3)Gal = biological target: GlcNAc(b1-3)Gal
# Outline: as §1
# [27] = biological target: GlcNAc(b1-3)Gal(b1-3)GalNAc
# Outline: as §1
# GlcNAc(b1-3)Gal(b1-4)Glc = biological target: GlcNAc(b1-3)Gal(b1-4)Glc
# Outline: as §1
# [28] = biological target: GlcNAc(b1-3)Gal(b1-4)GlcNAc
# Outline: as §1
# [29] = biological target: GlcNAc(b1-3)Gal(b1-4)GlcNAc(b1-2)Man(a1-3)[GlcNAc(b1-3)Gal(b1-4)GlcNAc(b1-2)Man(a1-6)]Man(b1-4)GlcNAc(b1-4)GlcNAc
# Outline: as §1
# [30] = biological target: GlcNAc(b1-3)Gal(b1-4)GlcNAc(b1-2)Man(a1-3)[GlcNAc(b1-3)Gal(b1-4)GlcNAc(b1-2)Man(a1-6)]Man(b1-4)GlcNAc(b1-4)[Fuc(a1-6)]GlcNAc
# Outline: as §1
# [31] = biological target: GlcNAc(b1-3)Gal(b1-4)GlcNAc(b1-2)[GlcNAc(b1-3)Gal(b1-4)GlcNAc(b1-6)]Man(a1-6)[GlcNAc(b1-3)Gal(b1-4)GlcNAc(b1-2)Man(a1-3)]Man(b1-4)GlcNAc(b1-4)GlcNAc
# Outline: as §1
# [32] = biological target: GlcNAc(b1-3)Gal(b1-4)GlcNAc(b1-3)Gal(b1-4)GlcNAc
# Outline: as §1
# [33] = biological target: GlcNAc(b1-3)Gal(b1-4)GlcNAc(b1-3)Gal(b1-4)GlcNAc(b1-2)Man(a1-3)[GlcNAc(b1-3)Gal(b1-4)GlcNAc(b1-3)Gal(b1-4)GlcNAc(b1-2)Man(a1-6)]Man(b1-4)GlcNAc(b1-4)GlcNAc
# Outline: as §1
binder,measurement,setting,value
B1,glycan array binding signal (z-score),[1],-0.127
same,glycan array binding signal (z-score),GalNAc4S6S(b1-4)GlcNAc,-0.209
same,glycan array binding signal (z-score),GalNAc6S(b1-4)GlcNAc,-0.131
same,glycan array binding signal (z-score),Glc(a1-4)Glc,-0.128
same,glycan array binding signal (z-score),[2],-0.1
same,glycan array binding signal (z-score),Glc(a1-6)Glc(a1-6)Glc,-0.113
same,glycan array binding signal (z-score),[3],-0.084
same,glycan array binding signal (z-score),Glc(b1-4)Glc,-0.122
same,glycan array binding signal (z-score),Glc(b1-6)Glc,-0.103
same,glycan array binding signal (z-score),GlcA(b1-3)Gal,-0.137
same,glycan array binding signal (z-score),GlcA(b1-3)GlcNAc,-0.12
same,glycan array binding signal (z-score),GlcA(b1-6)Gal,-0.1
same,glycan array binding signal (z-score),[4],-0.159
same,glycan array binding signal (z-score),[5],-0.095
same,glycan array binding signal (z-score),[6],-0.15
same,glycan array binding signal (z-score),[7],-0.125
same,glycan array binding signal (z-score),[8],-0.085
same,glycan array binding signal (z-score),[9],-0.152
same,glycan array binding signal (z-score),[10],-0.103
same,glycan array binding signal (z-score),[11],-0.137
same,glycan array binding signal (z-score),[12],-0.14
same,glycan array binding signal (z-score),[13],-0.007
same,glycan array binding signal (z-score),[14],-0.13
same,glycan array binding signal (z-score),[15],-0.116
same,glycan array binding signal (z-score),[16],-0.127
same,glycan array binding signal (z-score),[17],-0.074
same,glycan array binding signal (z-score),[18],-0.121
same,glycan array binding signal (z-score),[19],-0.118
same,glycan array binding signal (z-score),[20],-0.097
same,glycan array binding signal (z-score),[21],-0.133
same,glycan array binding signal (z-score),[22],-0.101
same,glycan array binding signal (z-score),[23],-0.176
same,glycan array binding signal (z-score),[24],-0.109
same,glycan array binding signal (z-score),[25],-0.067
same,glycan array binding signal (z-score),[26],-0.194
same,glycan array binding signal (z-score),GlcNAc(b1-3)Fuc,-0.045
same,glycan array binding signal (z-score),GlcNAc(b1-3)Gal,-0.139
same,glycan array binding signal (z-score),[27],-0.112
same,glycan array binding signal (z-score),GlcNAc(b1-3)Gal(b1-4)Glc,-0.158
same,glycan array binding signal (z-score),[28],-0.135
same,glycan array binding signal (z-score),[29],-0.038
same,glycan array binding signal (z-score),[30],0.045
same,glycan array binding signal (z-score),[31],-0.079
same,glycan array binding signal (z-score),[32],-0.128
same,glycan array binding signal (z-score),[33],0.117

# — the supplement of paper PMC8728848
